From PubChem BioAssay AID1671194 (National Center for Advancing Translational Sciences (NCATS), 2021)
About 240 (0.17%) of roughly 140,000 compounds were called active. The shares of active, inactive and inconclusive entries below differ from those in the screen. Calls follow the shape of the dose curve; as a rule, active = well fitted inhibition curve with a large enough effect; inconclusive = small, poorly fitted or top-dose-only effect; inactive = no such curve, though single readings can be large or run the other way. Where the call is inconclusive, the potency comes from a doubtful curve fit.

Assay: Primary qHTS assay for inhibitors of alpha-synuclein gene (SNCA) expression; also: nearly all actives have a fitted effect of over 45% in size
Details: HEK-293 SNCA-luciferase knock-in, luminescence, 24 h; series mostly up to 57.2 µM
Potency is read from the fitted curve at half-maximal effect; tags tell the direction and shape of the fitted curve.

Potency, inactive:
O=C(COc1ccccc1[N+](=O)[O-])Nc1ccc(-c2nc3ccccc3s2)cc1
COCc1cc(C[C@@H]2C[C@H](NC(=O)c3ccco3)C2(C)C)no1
COc1cc(CCC(=O)N2CCc3nn(Cc4ccccc4)c(=O)n3CC2)on1
O=C(Nc1ccc(Cl)cc1)N1CCN(c2ccc3nnc(-c4ccccc4)n3n2)CC1
Cc1ccc(C)c(C(=O)N[C@@H]2CN(c3ncccn3)C[C@H]2CN(C)C)c1
O=C1NC(=NC2CCCCC2)C2(CCN(CC3CC3)CC2)N1c1cc(F)cc(F)c1
CCOc1ccc(C2Cn3nnc(-c4nc(C(C)(C)C)no4)c3CO2)cc1 (stereo not given)
Cc1ccc(SC2CCN(Cc3cc4n(n3)CCNC4)CC2)cc1
O=C([C@@H]1C[C@H](F)CN1C(=O)c1ccccc1Cl)N1CCCCC1
CCS(=O)(=O)N1CC(F)(F)C[C@H]1c1nc(-c2cccnc2)no1
O=C(CC1CCOC2(CCN(C3CCN(Cc4ccccc4)CC3)CC2)C1)N1CCCC1 (stereo not given)

Potency, active:
O=C(C1CCC(Cn2c(=O)c3sccc3n(Cc3ccccc3F)c2=O)CC1)N1CCCCC1 (stereo not given) 25.1 µM

Potency, inconclusive:
CN(C)C[C@@H]1CN(c2ncccn2)C[C@H]1NC(=O)c1ccnn1C 0.708 µM [inhibitor, partial curve, poor fit]
O=S(=O)(NCC(Nc1ccc(Cl)cc1)c1ccccc1)c1ccccc1 (stereo not given) 39.8 µM [inhibitor, single point]
CN1CCOc2c(C(=O)NCCc3cnc[nH]3)cc(-c3ccccc3)cc21 2 µM [inhibitor, full curve]
O=C1c2c(nc(COc3ccc4c(c3)OCO4)n2Cc2ccccc2)NCCN1Cc1cccc(Cl)c1 39.8 µM [inhibitor, single point]
Cc1nn2c(c1-c1ccccc1C(C)C)N(Cc1cccc(C(=O)O)c1)CCC2 15.8 µM [inhibitor, partial curve, poor fit]
O=c1[nH]c(C2CCCN(Cc3ccc(-c4cc(F)cc(F)c4)cc3)C2)nc2ccc(F)cc12 (stereo not given) 4.47 µM [inhibitor, single point]
COc1cccc(CN2Cc3nc(-c4cc(F)cc(F)c4)ccc3OCC2=O)c1 56.2 µM [inhibitor, single point]
CN1CCCN(S(=O)(=O)c2cccc(Br)c2)c2ccccc21 39.8 µM [inhibitor, single point]
O=C(Nc1ccccc1)C1CCN(S(=O)(=O)c2ccc3[nH]c4c(c3c2)CCCCC4)CC1 10 µM [inhibitor, partial curve, poor fit]
COc1ccc(-c2ccnc(N[C@H]3CO[C@H]4[C@@H]3OC[C@@H]4NC(=O)c3ccc4c(c3)OCO4)n2)cc1 22.4 µM [inhibitor, partial curve, poor fit]
CCc1c(C)sc2c1CCN(C(=O)Nc1ccc(F)c(Cl)c1)C2c1ccc(F)cc1 (stereo not given) 31.6 µM [inhibitor, single point]
C#CCN(C)CC[C@@H]1CC[C@H](O)[C@@H](C(=O)NC(C)C)O1 35.5 µM [inhibitor, single point]
CC(C)NC(=O)C1CCN(C(=O)c2cc3sccc3n2Cc2ccc(Cl)cc2)CC1 3.55 µM [inhibitor, full curve, poor fit]
COc1cc(F)ccc1-c1ccnc2nc(-c3cccs3)nn12 8.91 µM [inhibitor, partial curve, poor fit]
Cc1ccc(CNCc2c(C(=O)O)n(Cc3ccc(C)cc3)c3cc(C)ccc23)cc1 39.8 µM [inhibitor, single point]
COC(=O)CNC(=O)C1=NOC2CN([S+](C)(=O)[O-])CC12 (stereo not given) 11.2 µM [inhibitor, partial curve, poor fit]
O=S(=O)(NCCc1csc2nc(-c3ccccc3)nn12)c1ccc(Cl)s1 3.16 µM [inhibitor, full curve]
Cc1ccc(C(=O)NCc2nnc3ccc(-c4ccc(Cl)cc4)nn23)s1 35.5 µM [inhibitor, partial curve, poor fit]
Cn1nccc1C(=O)N1CCC(F)(c2nc(-c3ccccc3)no2)CC1 25.1 µM [inhibitor, single point]
COc1ccc(NC(=O)c2ccc3c(c2)NC(C)(CNc2ccccc2)CO3)cc1OC (stereo not given) 25.1 µM [inhibitor, partial curve, poor fit]
COc1ccc(C2Cn3cnc(C(=O)N4CCC(C(=O)Nc5ccccc5OC)CC4)c3CO2)cc1 (stereo not given) 8.91 µM [inhibitor, single point]
Cc1ccc2c(CNCc3cccs3)c(C(=O)O)n(Cc3ccc(F)cc3)c2c1 15.8 µM [inhibitor, single point]
COc1ccc2[nH]c(C[C@@H]3C[C@@H](C(C)C)[C@H](CNCc4ccccc4O)C=C3C)nc2n1 56.2 µM [inhibitor, single point]
Cc1nn(C)c2c1c(-c1ccccc1)cc(=O)n2Cc1ccccc1F 7.08 µM [inhibitor, single point]
Cc1ccc(CCNC(=O)NCc2noc3ccc(C)cc23)cc1 2.51 µM [inhibitor, single point]
COC(=O)c1sccc1S(=O)(=O)N(CC(=O)Nc1ccc(C)cc1)c1ccccc1 39.8 µM [inhibitor, single point]
CN(C)c1ccc(-c2nc(-c3ccccn3)no2)cc1[N+](=O)[O-] 3.98 µM [inhibitor, full curve, poor fit]
Cc1nn(Cc2ccccc2)c(C)c1[C@@H]1C=C[C@@H](NC(=O)c2ccc(F)c(Cl)c2)C1 50.1 µM [inhibitor, single point]
